In PubChem BioAssay AID485294 (National Center for Advancing Translational Sciences (NCATS), 2010):
Among all 370,000 compounds or so, about 150 (0.041%) were called active. The shares of active, inactive and inconclusive entries below differ from those in the screen. Calls follow the shape of the dose curve; as a rule, active = well fitted inhibition curve with a large enough effect; inconclusive = small, poorly fitted or top-dose-only effect; inactive = flat fitted curve, though single readings scatter. No potency is given beside an inconclusive call; the fits are too rough.

What follows are molecules tested against Beta-lactamase (Escherichia coli (strain K12)) (UniProt P00811) (assay: qHTS Inhibitors of AmpC Beta-Lactamase (assay with detergent)). Settings: AmpC hydrolysis of nitrocefin, absorbance 480 nm, 0.01% Triton; activity change, negative = inhibition: at 114 µM (top of the series).
Sequence of UniProt P00811 (P00811 whole entry, looked up): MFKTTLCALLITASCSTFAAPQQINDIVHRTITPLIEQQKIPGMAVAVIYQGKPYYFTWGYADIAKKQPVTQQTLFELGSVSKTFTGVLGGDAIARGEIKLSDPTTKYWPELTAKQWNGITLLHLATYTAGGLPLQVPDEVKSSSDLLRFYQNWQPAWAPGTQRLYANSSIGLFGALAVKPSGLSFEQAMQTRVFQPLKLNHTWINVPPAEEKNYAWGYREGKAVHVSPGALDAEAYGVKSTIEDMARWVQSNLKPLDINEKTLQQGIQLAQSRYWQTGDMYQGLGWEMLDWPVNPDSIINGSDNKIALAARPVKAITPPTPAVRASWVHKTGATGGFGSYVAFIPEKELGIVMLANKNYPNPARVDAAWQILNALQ
In short: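 AmpC (5.3 nM in the dispensed reagent) in 20 mM phosphate pH 7.0 with 0.01% (detergent screen) or 0.0001% Triton X-100 was preincubated with compounds for 15 min at room temperature. Nitrocefin was then added from an 800 uM solution, and hydrolysis was followed at 480 nm.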
Also: nearly all actives have a fitted effect of over 25% in size.
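For activity change, negative = inhibition in this document: 0% = no-compound wells and -100% = no-enzyme wells.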
Potency is read from the fitted curve at half-maximal effect; tags tell the direction and shape of the fitted curve.

With O=C(NCc1ccccc1)c1ccc(CS(=O)(=O)c2ccc(Br)cc2)o1 as the molecule, how does the Potency read?
The Potency was inconclusive [inhibitor, partial curve, poor fit].

With Cc1ccc(S(=O)(=O)N2CCCC(C(=O)NCc3ccccc3F)C2)cc1 (stereo not given) as the molecule, how does the Potency read?
The Potency was inconclusive [inhibitor, partial curve, poor fit].

How did the “activity change, negative = inhibition” value turn out when O=C(c1noc2c1CCCCC2)N1CCN(c2cccc(Cl)c2)CC1 was run?
The value was inactive: 19.3%.

How did the Potency turn out when O=C(Cn1cnc2c(nnn2Cc2ccccc2)c1=O)N1CCCc2ccccc21 was run?
The Potency was inconclusive [inhibitor, full curve, poor fit].

O=C(COC(=O)/C=C/c1ccc(C(F)(F)F)cc1)NC1CCS(=O)(=O)C1 (stereo not given) was tested. Which Potency did it give?
The Potency was inconclusive [inhibitor, full curve].

How did the Potency turn out when COC(=O)c1ccc(COC(=O)c2cccn2C)o1 was run?
The Potency was inconclusive [inhibitor, single point].

Which “activity change, negative = inhibition” value does the source give for CCc1nn2c(=O)cc(COC(=O)c3ccc(NC(=O)COc4ccccc4C)cc3)nc2s1 here?
Its value is inactive: 13.7%.

For COC(=O)c1ccc(C2C(Oc3ccc(OC)cc3)C(=O)N2CCc2ccc(OC)c(OC)c2)cc1 (stereo not given), which Potency is on record?
Its Potency is inconclusive [inhibitor, partial curve, poor fit].

For CC(=O)Oc1ccccc1/C=C/c1nc2ccccc2c(=O)o1, which “activity change, negative = inhibition” value is on record?
The value was inactive: -4.14%.

How did the Potency turn out when O=C(CC1Oc2ccccc2NC1=O)NCCCN1CCOCC1 (stereo not given) was run?
The Potency was inconclusive [inhibitor, partial curve, poor fit].

How did the “activity change, negative = inhibition” value turn out when COc1cc(Nc2ncc3c(n2)CCN(Cc2ccc(OC(C)C)c(OC)c2)C3)cc(OC)c1 was run?
Its value is inactive: -11.4%.

Which “activity change, negative = inhibition” value does the source give for CC(Cc1cccs1)NC(=O)Nc1cccc(Cl)c1 (stereo not given) here?
Its value is inactive: 0.0978%.

For O=C(c1cc(-c2cccc(O)c2)on1)N1CCOCC1, which Potency is on record?
Its Potency is inconclusive [inhibitor, full curve].

For Cc1nn(-c2cccc(Cl)c2)c2c1C(c1cccnc1)C(C#N)=C(N)O2 (stereo not given), which Potency is on record?
The Potency was inconclusive [inhibitor, partial curve].

How did the Potency turn out when COC1(C)CC2C(CC1OC(=O)c1cc([N+](=O)[O-])cc([N+](=O)[O-])c1)C2(C)C (stereo not given) was run?
Its Potency is inconclusive [inhibitor, full curve, poor fit].

For O=C(CC1N=C2c3ccccc3N=C(SCC(=O)Nc3ccc(F)cc3)N2C1=O)NCc1ccco1 (stereo not given), which “activity change, negative = inhibition” value is on record?
Its value is inactive: -0.485%.

For O=C(CCc1n[nH]c(=O)[nH]c1=O)N1CCOCC1, which Potency is on record?
Its Potency is inconclusive [inhibitor, full curve, poor fit].

CN(C)c1ccc(C(C(=O)NCC2CCCO2)N(C(=O)c2snc(C(N)=O)c2N)c2ccc3c(c2)OCO3)cc1 (stereo not given) was tested. Which Potency did it give?
Its Potency is inconclusive [inhibitor, full curve, poor fit].

How did the Potency turn out when CCOC(=O)c1c(C)[nH]c(C)c1C(=O)COC(=O)c1ccc(OC)c(OC)c1 was run?
Its Potency is inconclusive [inhibitor, partial curve, poor fit].

With CC1CC(NC(=O)c2cc3c(=O)n4ccccc4nc3n2C)CC(C)(C)C1 (stereo not given) as the molecule, how does the “activity change, negative = inhibition” value read?
The value was inactive: 0.476%.

With CC(Nc1cc(N2CCOCC2)ccc1[N+](=O)[O-])c1ccccc1 (stereo not given) as the molecule, how does the Potency read?
Its Potency is inconclusive [inhibitor, full curve].

How did the Potency turn out when COc1ccc(/C=C/CN2CCC(Oc3ccc(C(=O)N4CCCCC4)cc3)CC2)cc1 was run?
The Potency was inconclusive [inhibitor, full curve, poor fit].

Which Potency does the source give for Cc1csc(NC(=O)CSc2nnc(NC(=O)C3CC(=O)N(c4ccccc4)C3)s2)n1 (stereo not given) here?
The Potency was inconclusive [inhibitor, full curve].

Which Potency does the source give for Cc1ccc(C(=O)Nc2cccc(C(=O)N3CCOCC3)c2)cc1Cl here?
The Potency was inconclusive [inhibitor, partial curve, poor fit].

With O=C(O)CCCC(=O)Nc1ccc(N2CCCC2)cc1 as the molecule, how does the Potency read?
The Potency was inconclusive [inhibitor, partial curve, poor fit].

Which Potency does the source give for O=[N+]([O-])c1ccc(Cl)c(S(=O)(=O)Nc2ccc(-c3ccc(N4CCCC4)nn3)cc2)c1 here?
Its Potency is inconclusive [inhibitor, full curve, poor fit].

CCCCNC(=O)CSc1nnc(NC(C)=O)s1 was tested. Which Potency did it give?
Its Potency is inconclusive [inhibitor, partial curve, poor fit].

For CCN(CC1CCCO1)C(=O)CCc1nnc(Cc2ccc3c(c2)OCO3)o1 (stereo not given), which “activity change, negative = inhibition” value is on record?
Its value is inactive: 7.21%.

Cc1nc2ccccn2c1C(=O)CSc1ccccc1 was tested. Which Potency did it give?
The Potency was inconclusive [inhibitor, partial curve].

Which Potency does the source give for CCOC(=O)CN1CC23C=CC(O2)C(C(=O)NCCc2ccccc2)C3C1=O (stereo not given) here?
Its Potency is inconclusive [inhibitor, full curve, poor fit].

For COc1cc(NC2c3ccccc3C(=O)N2c2ccc(C)cn2)cc(OC)c1OC (stereo not given), which Potency is on record?
The Potency was inconclusive [inhibitor, full curve, poor fit].

O=C(CNC(c1ccccc1)c1ccccc1)Nc1ccc(F)cc1 was tested. Which Potency did it give?
Its Potency is inconclusive [inhibitor, full curve, poor fit].

Which Potency does the source give for COc1ccc2c(c1)[nH]c1c(=O)n(CCN3CCCC3)cnc12 here?
Its Potency is inconclusive [inhibitor, single point].

Which Potency does the source give for Cc1cc(C)n(CCC(=O)Nc2ccc(-c3ccno3)cc2)n1 here?
The Potency was inconclusive [inhibitor, partial curve].

O=C(Cc1ccccc1)N/N=C/c1cc(Br)cs1 was tested. Which Potency did it give?
The Potency was inconclusive [inhibitor, partial curve, poor fit].

With O=C(Cc1ccc(Cl)cc1)NC1CCCN(Cc2ccccc2F)C1 (stereo not given) as the molecule, how does the Potency read?
Its Potency is inconclusive [inhibitor, full curve, poor fit].

COCCNC(=S)c1ccc(OC)cc1 was tested. Which Potency did it give?
Its Potency is inconclusive [inhibitor, full curve].

Which Potency does the source give for Cc1ccc(-c2nnc3n2N=C(c2ccccc2Br)CS3)cc1 here?
The Potency was inconclusive [inhibitor, full curve].

With CC(C(=O)NCCC1=CCCCC1)N1C(=O)c2ccccc2C1=O (stereo not given) as the molecule, how does the “activity change, negative = inhibition” value read?
Its value is inactive: -18.3%.

N#Cc1ccc(NC(=O)CN2C(=O)NC(Cc3ccccc3)C2=O)cc1 (stereo not given) was tested. Which Potency did it give?
Its Potency is inconclusive [inhibitor, full curve, poor fit].

How did the Potency turn out when COc1ccc2cc(C3CC(c4ccco4)=NN3C(=O)CCC(=O)O)c(Cl)nc2c1 (stereo not given) was run?
Its Potency is inconclusive [inhibitor, full curve, poor fit].

For COCCNC(=O)/C(C#N)=C/c1cn(CC(=O)NCc2ccco2)c2ccccc12, which “activity change, negative = inhibition” value is on record?
Its value is inactive: -5.3%.

Which Potency does the source give for O=C(c1cnc2n(c1=O)CCS2)N1CCN(C(c2ccccc2)c2ccc(Cl)cc2)CC1 (stereo not given) here?
Its Potency is inconclusive [inhibitor, full curve, poor fit].

CCc1noc(C)c1C(=O)Nc1cc(S(=O)(=O)N(CC)CC)ccc1N1CCCC1 was tested. Which Potency did it give?
The Potency was inconclusive [inhibitor, partial curve, poor fit].

Which Potency does the source give for Cc1csc(=NC(=O)c2ccccc2)n1CCO here?
Its Potency is inconclusive [inhibitor, full curve].

With CC12CCC(C(=O)N(CSC(=S)N/N=C\c3ccccc3)C1=O)C2(C)C (stereo not given) as the molecule, how does the Potency read?
The Potency was inconclusive [inhibitor, single point].

How did the Potency turn out when CN1CCN(C2CCN(Cc3ccc(O)c4ncccc34)CC2)CC1 was run?
The Potency was inconclusive [inhibitor, full curve, poor fit].

How did the Potency turn out when C=CCOc1ccc(/C=N/NC(=O)CN2CCCCC2)cc1OC was run?
Its Potency is inconclusive [inhibitor, full curve, poor fit].

For Clc1cc2nc3ccccn3c2cc1Cl, which “activity change, negative = inhibition” value is on record?
Its value is inactive: 1.76%.

For COc1ccc(C(=O)NCCS(=O)(=O)NCC2CCCO2)cc1 (stereo not given), which Potency is on record?
Its Potency is inconclusive [inhibitor, full curve, poor fit].

With CCc1cc(C(=O)NCC2CCCO2)sc1C (stereo not given) as the molecule, how does the “activity change, negative = inhibition” value read?
Its value is inactive: 0.262%.

With CCCn1nnnc1SCC(=O)Nc1ccc(F)cc1 as the molecule, how does the Potency read?
The Potency was inconclusive [inhibitor, partial curve, poor fit].

How did the “activity change, negative = inhibition” value turn out when O=[N+]([O-])c1cccc(-c2csc(Nc3ccccc3)n2)c1 was run?
The value was inactive: 4.81%.

COc1ccc(CCC(=O)Nc2nc3ccccc3[nH]2)cc1 was tested. Which Potency did it give?
Its Potency is inconclusive [inhibitor, single point].

CCN(CC)S(=O)(=O)c1ccc2nc(COC(=O)c3n[nH]c4ccccc34)[nH]c2c1 was tested. Which Potency did it give?
Its Potency is inconclusive [inhibitor, full curve].

COc1ccc(OC)c(S(=O)(=O)NCc2cn3c(C)csc3n2)c1 was tested. Which Potency did it give?
The Potency was inconclusive [inhibitor, full curve, poor fit].

For CN(CC(=O)Nc1ccc(Cl)c(C(F)(F)F)c1)C(=O)C1(c2ccccc2)CC1, which Potency is on record?
The Potency was inconclusive [inhibitor, single point].

For COc1cccc(Cn2ncc3c4sc(Br)cc4n(C)c3c2=O)c1, which Potency is on record?
Its Potency is inconclusive [inhibitor, full curve, poor fit].

COc1cccc(-n2sc3c(c2=S)-c2cc(OC)ccc2NC3(C)C)c1 was tested. Which Potency did it give?
Its Potency is inconclusive [inhibitor, single point].

CCOC(=O)c1c(N)sc2c1CCC(CC)C2 (stereo not given) was tested. Which Potency did it give?
Its Potency is inconclusive [inhibitor, single point].

For CC[n+]1c(S(=O)(=O)[O-])ccc2ccc(C)cc21, which Potency is on record?
The Potency was inconclusive [inhibitor, partial curve, poor fit].

Which Potency does the source give for O=C(NN1C(=O)c2ccccc2C1=O)C1C2CCCCC21 (stereo not given) here?
Its Potency is inconclusive [inhibitor, single point].

O=C(CSc1nnc(NC(=O)c2ccco2)s1)NC1CCCC1 was tested. Which Potency did it give?
Its Potency is inconclusive [inhibitor, partial curve, poor fit].

How did the “activity change, negative = inhibition” value turn out when Cc1[nH]n(-c2ccc(Cl)cc2)c(=O)c1N=Nc1cccnc1 was run?
The value was inactive: 0.568%.

c1ccc(CSCc2cn3ccsc3n2)cc1 was tested. Which “activity change, negative = inhibition” value did it give?
Its value is inactive: 2.48%.
